This is an account of results in paper PMC5700166.

This is a selection; strong and weak results do not stand in their true shares. The list includes weakly bound sequences.

In the assay the target is T1, GST-Co-NF-kB (UniProt F1ARL5).
T1 sequence: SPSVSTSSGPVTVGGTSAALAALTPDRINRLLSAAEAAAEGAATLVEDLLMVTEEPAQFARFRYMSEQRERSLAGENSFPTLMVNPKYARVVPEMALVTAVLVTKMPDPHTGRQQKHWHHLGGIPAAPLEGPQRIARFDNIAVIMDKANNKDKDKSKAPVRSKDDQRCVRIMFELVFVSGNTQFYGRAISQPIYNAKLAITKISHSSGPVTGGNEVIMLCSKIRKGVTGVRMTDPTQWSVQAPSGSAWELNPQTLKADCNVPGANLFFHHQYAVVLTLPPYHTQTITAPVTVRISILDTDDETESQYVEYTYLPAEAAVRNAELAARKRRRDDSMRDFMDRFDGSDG
The assay can be described thus: protein-binding microarray (PBM). The conditions noted are these: PBM: ~300 nM protein, 6 mM HEPES pH 7.8, 80 mM KCl, 0.5 mM EDTA, 0.5 mM EGTA, 6% glycerol, 35 ng/ul poly-dIdC, 1% milk, 1 h, room temperature; Ap Aiptasia and Nv Nematostella (sea anemones) / Co Capsaspora / Aq Amphimedon (sponge) / Dm Drosophila / Hu human; RHD is the Rel homology domain; high values mean tight binding; most listed sequences are background and not binding sites; double strand, one strand shown.
“CCGATTAACATCAGGACTATCCCTGATGTTAATCGGGTCTTGATTCGCTTGACGCTGCTG” registered a binding signal of 0.561 z-score.
Consider “CCGATTAACATCAAATTCCCGGGTGATGTTAATCGGGTCTTGATTCGCTTGACGCTGCTG”, for which the binding signal was determined as 4.43 z-score.
To “CCGATTAACATCACGCAACCCCCTGATGTTAATCGGGTCTTGATTCGCTTGACGCTGCTG” belongs 2 z-score; to “CCGATTAACATCAAGGGAAGCCCTGATGTTAATCGGGTCTTGATTCGCTTGACGCTGCTG”, 0.502 z-score; to “CCGATTAACATCAAATGACCCCCTGATGTTAATCGGGTCTTGATTCGCTTGACGCTGCTG”, 2.98 z-score.
Consider “CCGATTAACATCAGGGGATACCCTGATGTTAATCGGGTCTTGATTCGCTTGACGCTGCTG”, for which the binding signal came out at 3.74 z-score.
To “CCGATTAACATCACCGGGAATTCTGATGTTAATCGGGTCTTGATTCGCTTGACGCTGCTG” belongs 5.5 z-score.
To “CCGATTAACATCAGGAGACCCCCTGATGTTAATCGGGTCTTGATTCGCTTGACGCTGCTG” belongs 1.61 z-score; to “CCGATTAACATCAATCTCCCCCCTGATGTTAATCGGGTCTTGATTCGCTTGACGCTGCTG”, 8.72 z-score; to “CCGATTAACATCAAAATTCCCTTTGATGTTAATCGGGTCTTGATTCGCTTGACGCTGCTG”, 2.62 z-score.
To “CCGATTAACATCAAAAAACTACCTGATGTTAATCGGGTCTTGATTCGCTTGACGCTGCTG” belongs 0.454 z-score; to “CCGATTAACATCAATTTTTCCCGTGATGTTAATCGGGTCTTGATTCGCTTGACGCTGCTG”, 6.5 z-score; to “CCGATTAACATCACATATCCCCCTGATGTTAATCGGGTCTTGATTCGCTTGACGCTGCTG”, 5.73 z-score.
In turn, “CCGATTAACATCAGGCGAGTCCCTGATGTTAATCGGGTCTTGATTCGCTTGACGCTGCTG” came in with a binding signal of 0.0939 z-score.
